Numbering of substitutions follows the chain as printed; changes in the protein carry UniProt numbers. The list shows a part of the results.
T1: RBFOX1 RRM RbFoxmut (Fox-RRM*) (Homo sapiens, UniProt Q9NWB1 109-208, R118D;E147R;N151S;E152T)
T1 sequence: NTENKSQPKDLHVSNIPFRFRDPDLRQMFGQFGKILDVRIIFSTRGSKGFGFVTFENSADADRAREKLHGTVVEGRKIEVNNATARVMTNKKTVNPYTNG

B1: GUUGGUG (DNA:RNA)
RNA: GGGAGACCGGAAUUCAGAUUGUCCGUUGGUGUUAAAUCCCGUCGUAGCCACCA
DNA 1: CAATCTGAATTCCGGTCTCCC
DNA 2: TGGTGGCTACGACGGGATT
B2: CUCAUAG (DNA:RNA)
RNA: B1 RNA with G25C, U27C, G28A, G29U, U30A
DNA 1: CAATCTGAATTCCGGTCTCCC
DNA 2: TGGTGGCTACGACGGGATT
B3: AGCCUUC (DNA:RNA)
RNA: B1 RNA with G25A, U26G, U27C, G28C, G29U, G31C
DNA 1: CAATCTGAATTCCGGTCTCCC
DNA 2: TGGTGGCTACGACGGGATT
B4: ACGCACA (DNA:RNA)
RNA: GGGAGACCGGAAUUCAGAUUGUCCACGCACAUUAAAUCCCGUCGUAGCCACCA
DNA 1: CAATCTGAATTCCGGTCTCCC
DNA 2: TGGTGGCTACGACGGGATT
B5: UCAUUCG (DNA:RNA)
RNA: B4 RNA with A25U, G27A, C28U, A29U, A31G
DNA 1: CAATCTGAATTCCGGTCTCCC
DNA 2: TGGTGGCTACGACGGGATT
B6: CAUAAUU (DNA:RNA)
RNA: B1 RNA with G25C, U26A, G28A, G29A, G31U
DNA 1: CAATCTGAATTCCGGTCTCCC
DNA 2: TGGTGGCTACGACGGGATT
B7: GGGAAGA (DNA:RNA)
RNA: B4 RNA with A25G, C26G, C28A, C30G
DNA 1: CAATCTGAATTCCGGTCTCCC
DNA 2: TGGTGGCTACGACGGGATT
B8: UCCGCUA (DNA:RNA)
RNA: B4 RNA with A25U, G27C, C28G, A29C, C30U
DNA 1: CAATCTGAATTCCGGTCTCCC
DNA 2: TGGTGGCTACGACGGGATT
B9: CUUGGCU (DNA:RNA)
RNA: B1 RNA with G25C, U30C, G31U
DNA 1: CAATCTGAATTCCGGTCTCCC
DNA 2: TGGTGGCTACGACGGGATT
B10: UCGGGUA (DNA:RNA)
RNA: B4 RNA with A25U, C28G, A29G, C30U
DNA 1: CAATCTGAATTCCGGTCTCCC
DNA 2: TGGTGGCTACGACGGGATT
B11: CACCGUA (DNA:RNA)
RNA: B4 RNA with A25C, C26A, G27C, A29G, C30U
DNA 1: CAATCTGAATTCCGGTCTCCC
DNA 2: TGGTGGCTACGACGGGATT
B12: AAUUAUC (DNA:RNA)
RNA: B4 RNA with C26A, G27U, C28U, C30U, A31C
DNA 1: CAATCTGAATTCCGGTCTCCC
DNA 2: TGGTGGCTACGACGGGATT
B13: UUACUUU (DNA:RNA)
RNA: B1 RNA with G25U, U27A, G28C, G29U, G31U
DNA 1: CAATCTGAATTCCGGTCTCCC
DNA 2: TGGTGGCTACGACGGGATT
B14: CAGGAGA (DNA:RNA)
RNA: B4 RNA with A25C, C26A, C28G, C30G
DNA 1: CAATCTGAATTCCGGTCTCCC
DNA 2: TGGTGGCTACGACGGGATT
B15: UUCAUAA (DNA:RNA)
RNA: B4 RNA with A25U, C26U, G27C, C28A, A29U, C30A
DNA 1: CAATCTGAATTCCGGTCTCCC
DNA 2: TGGTGGCTACGACGGGATT
B16: AUCGAUU (DNA:RNA)
RNA: B1 RNA with G25A, U27C, G29A, G31U
DNA 1: CAATCTGAATTCCGGTCTCCC
DNA 2: TGGTGGCTACGACGGGATT
B17: CCACGCC (DNA:RNA)
RNA: B4 RNA with A25C, G27A, A29G, A31C
DNA 1: CAATCTGAATTCCGGTCTCCC
DNA 2: TGGTGGCTACGACGGGATT
B18: GCCGUCA (DNA:RNA)
RNA: B4 RNA with A25G, G27C, C28G, A29U
DNA 1: CAATCTGAATTCCGGTCTCCC
DNA 2: TGGTGGCTACGACGGGATT
B19: GACGAUA (DNA:RNA)
RNA: B1 RNA with U26A, U27C, G29A, G31A
DNA 1: CAATCTGAATTCCGGTCTCCC
DNA 2: TGGTGGCTACGACGGGATT
B20: AGUGAAG (DNA:RNA)
RNA: B1 RNA with G25A, U26G, G29A, U30A
DNA 1: CAATCTGAATTCCGGTCTCCC
DNA 2: TGGTGGCTACGACGGGATT
B21: UAAUCCC (DNA:RNA)
RNA: B4 RNA with A25U, C26A, G27A, C28U, A29C, A31C
DNA 1: CAATCTGAATTCCGGTCTCCC
DNA 2: TGGTGGCTACGACGGGATT
B22: CGCGAAA (DNA:RNA)
RNA: B4 RNA with A25C, C26G, G27C, C28G, C30A
DNA 1: CAATCTGAATTCCGGTCTCCC
DNA 2: TGGTGGCTACGACGGGATT
B23: CCGAUCU (DNA:RNA)
RNA: B4 RNA with A25C, C28A, A29U, A31U
DNA 1: CAATCTGAATTCCGGTCTCCC
DNA 2: TGGTGGCTACGACGGGATT
B24: CUCAUCA (DNA:RNA)
RNA: B4 RNA with A25C, C26U, G27C, C28A, A29U
DNA 1: CAATCTGAATTCCGGTCTCCC
DNA 2: TGGTGGCTACGACGGGATT
B25: UUAACGG (DNA:RNA)
RNA: B1 RNA with G25U, U27A, G28A, G29C, U30G
DNA 1: CAATCTGAATTCCGGTCTCCC
DNA 2: TGGTGGCTACGACGGGATT
B26: AGGGCCC (DNA:RNA)
RNA: B4 RNA with C26G, C28G, A29C, A31C
DNA 1: CAATCTGAATTCCGGTCTCCC
DNA 2: TGGTGGCTACGACGGGATT
B27: UAGUUAA (DNA:RNA)
RNA: B4 RNA with A25U, C26A, C28U, A29U, C30A
DNA 1: CAATCTGAATTCCGGTCTCCC
DNA 2: TGGTGGCTACGACGGGATT
B28: AAACCAU (DNA:RNA)
RNA: B4 RNA with C26A, G27A, A29C, C30A, A31U
DNA 1: CAATCTGAATTCCGGTCTCCC
DNA 2: TGGTGGCTACGACGGGATT
B29: UGAGUAU (DNA:RNA)
RNA: B1 RNA with G25U, U26G, U27A, G29U, U30A, G31U
DNA 1: CAATCTGAATTCCGGTCTCCC
DNA 2: TGGTGGCTACGACGGGATT
B30: CGCAAAG (DNA:RNA)
RNA: B4 RNA with A25C, C26G, G27C, C28A, C30A, A31G
DNA 1: CAATCTGAATTCCGGTCTCCC
DNA 2: TGGTGGCTACGACGGGATT
B31: UUGGCGA (DNA:RNA)
RNA: B4 RNA with A25U, C26U, C28G, A29C, C30G
DNA 1: CAATCTGAATTCCGGTCTCCC
DNA 2: TGGTGGCTACGACGGGATT

Target: T1, RBFOX1 RRM RbFoxmut (Fox-RRM*)
Assay: EMSA; HiTS-Eq, 1 nM pool, 10 min; buffer printed only for the single-RNA assays: 10 mM Tris pH 7.5, 150 mM NaCl, 3.4 mM EDTA, 0.001% NP-40, 30 C
Details: tags: His6 N-terminal (pET28a); label: 5' 32P
Method in brief: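 Purified RbFox RRM (wild type or mutant) was equilibrated for 10 min in 50 µL with 1 nM of a 5′-radiolabelled pool of RNA with 7 randomized nucleotides, its flanks annealed to DNA oligonucleotides, across increasing protein concentrations. Free RNA was separated by 8% native PAGE, excised, reverse-transcribed, PCR-barcoded and sequenced on an Illumina HiSeq 2500. Relative association constants came from read-count changes of each variant against the control reaction, normalised to the cognate motif.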

| Binder | binding signal |
| --- | --- |
| B1 | 0.156 KA relative to UGCAUGU |
| B2 | 0.148 KA relative to UGCAUGU |
| B3 | 0.127 KA relative to UGCAUGU |
| B4 | 0.105 KA relative to UGCAUGU |
| B5 | 0.0978 KA relative to UGCAUGU |
| B6 | 0.0899 KA relative to UGCAUGU |
| B7 | 0.0814 KA relative to UGCAUGU |
| B8 | 0.0757 KA relative to UGCAUGU |
| B9 | 0.102 KA relative to UGCAUGU |
| B10 | 0.139 KA relative to UGCAUGU |
| B11 | 0.103 KA relative to UGCAUGU |
| B12 | 0.0838 KA relative to UGCAUGU |
| B13 | 0.0818 KA relative to UGCAUGU |
| B14 | 0.0858 KA relative to UGCAUGU |
| B15 | 0.114 KA relative to UGCAUGU |
| B16 | 0.0813 KA relative to UGCAUGU |

| Binder | binding signal |
| --- | --- |
| B17 | 0.123 KA relative to UGCAUGU |
| B18 | 0.0763 KA relative to UGCAUGU |
| B19 | 0.0832 KA relative to UGCAUGU |
| B20 | 0.134 KA relative to UGCAUGU |
| B21 | 0.0728 KA relative to UGCAUGU |
| B22 | 0.0949 KA relative to UGCAUGU |
| B23 | 0.0341 KA relative to UGCAUGU |
| B24 | 0.125 KA relative to UGCAUGU |
| B25 | 0.0728 KA relative to UGCAUGU |
| B26 | 0.0881 KA relative to UGCAUGU |
| B27 | 0.108 KA relative to UGCAUGU |
| B28 | 0.0885 KA relative to UGCAUGU |
| B29 | 0.11 KA relative to UGCAUGU |
| B30 | 0.118 KA relative to UGCAUGU |
| B31 | 0.074 KA relative to UGCAUGU |
